Measured values from patent US20040110933A1.
Residue numbers refer to the chain shown, from its start.

Experiments:
[1] = target: human CD44 expressed on human cells (KG1a, SR91, HMEC, HUVEC, primary leukocytes) (human) (UniProt P16070); test: flow cytometry, CD44+ cells, Fab 100 µg/mL, 9E10 + GxM FITC detection (background 29)
[2] = target: human CD44 expressed on human cells (KG1a, SR91, HMEC, HUVEC, primary leukocytes) (human) (UniProt P16070); test: displacement of FL-HA, KG1a-HA+ cells, Fab 500 µg/mL
[3] = target: human CD44 expressed on human cells (KG1a, SR91, HMEC, HUVEC, primary leukocytes) (human) (UniProt P16070); test: flow cytometry, KG1a-HA- cells, Fab 100 µg/mL, anti-6His + GxM-FITC (background 6)
[4] = target: human CD44 expressed on human cells (KG1a, SR91, HMEC, HUVEC, primary leukocytes) (human) (UniProt P16070); test: flow cytometry on KG1a cells, Fab at 0.1-1 µg/mL
[5] = target: human CD44 expressed on human cells (KG1a, SR91, HMEC, HUVEC, primary leukocytes) (human) (UniProt P16070); test: flow cytometry, KG1a-HA+ cells, Fab […]
[6] = target: human CD44 expressed on human cells (KG1a, SR91, HMEC, HUVEC, primary leukocytes) (human) (UniProt P16070); test: displacement of FL-HA, KG1a-HA+ cells, Fab 1 mg/mL
[7] = target: human CD44 expressed on human cells (KG1a, SR91, HMEC, HUVEC, primary leukocytes) (human) (UniProt P16070); test: flow cytometry, CD44+ cells, Fab 25 µg/mL, 9E10 + GxM FITC detection (background 29)
[8] = target: human CD44 expressed on human cells (KG1a, SR91, HMEC, HUVEC, primary leukocytes) (human) (UniProt P16070); test: flow cytometry, KG1a-HA- cells, Fab 1000 µg/mL, anti-6His + GxM-FITC (background 6)
[9] = target: human CD44 expressed on human cells (KG1a, SR91, HMEC, HUVEC, primary leukocytes) (human) (UniProt P16070); test: displacement of FL-HA from KG1a cells, Fab above 250 µg/mL
[10] = target: human CD44 expressed on human cells (KG1a, SR91, HMEC, HUVEC, primary leukocytes) (human) (UniProt P16070); test: flow cytometry, KG1a-HA+ cells, Fab 100 µg/mL, anti-6His + GxM-FITC (background 6)
[11] = target: human CD44 expressed on human cells (KG1a, SR91, HMEC, HUVEC, primary leukocytes) (human) (UniProt P16070); test: displacement of FL-HA from KG1a cells, flow cytometry, Fab at 0.1-1 µg/mL
[12] = target: human CD44 expressed on human cells (KG1a, SR91, HMEC, HUVEC, primary leukocytes) (human) (UniProt P16070); test: flow cytometry, KG1a-HA- cells, Fab 1 mg/mL
[13] = target: human CD44 expressed on human cells (KG1a, SR91, HMEC, HUVEC, primary leukocytes) (human) (UniProt P16070); test: flow cytometry, KG1a-HA+ cells, Fab 1 mg/mL
[14] = target: human CD44 expressed on human cells (KG1a, SR91, HMEC, HUVEC, primary leukocytes) (human) (UniProt P16070); test: flow cytometry, SR91 cells, Fab 20 µg/mL
[15] = target: human CD44 expressed on human cells (KG1a, SR91, HMEC, HUVEC, primary leukocytes) (human) (UniProt P16070); test: flow cytometry, KG1a-HA+ cells, Fab 1000 µg/mL, anti-6His + GxM-FITC (background 6)
[16] = target: human CD44 expressed on human cells (KG1a, SR91, HMEC, HUVEC, primary leukocytes) (human) (UniProt P16070); test: flow cytometry, KG1a-HA+ cells, Fab 250 µg/mL
[17] = target: human CD44 expressed on human cells (KG1a, SR91, HMEC, HUVEC, primary leukocytes) (human) (UniProt P16070); test: displacement of FL-HA, KG1a-HA+ cells, Fab 250 µg/mL
[18] = target: human CD44 expressed on human cells (KG1a, SR91, HMEC, HUVEC, primary leukocytes) (human) (UniProt P16070); test: flow cytometry, KG1a-HA- cells, Fab […]
[19] = target: human CD44 expressed on human cells (KG1a, SR91, HMEC, HUVEC, primary leukocytes) (human) (UniProt P16070); test: flow cytometry, KG1a-HA- cells, Fab 20 µg/mL, anti-6His + GxM-FITC (background 6)
[20] = target: human CD44 expressed on human cells (KG1a, SR91, HMEC, HUVEC, primary leukocytes) (human) (UniProt P16070); test: flow cytometry, KG1a-HA+ cells, Fab 50 µg/mL, anti-6His + GxM-FITC (background 6)
[21] = target: human CD44 expressed on human cells (KG1a, SR91, HMEC, HUVEC, primary leukocytes) (human) (UniProt P16070); test: flow cytometry, KG1a-HA- cells, Fab 250 µg/mL
[22] = target: human CD44 expressed on human cells (KG1a, SR91, HMEC, HUVEC, primary leukocytes) (human) (UniProt P16070); test: flow cytometry, KG1a-HA+ cells, Fab 500 µg/mL
[23] = target: human CD44 expressed on human cells (KG1a, SR91, HMEC, HUVEC, primary leukocytes) (human) (UniProt P16070); test: flow cytometry, KG1a-HA+ cells, Fab 20 µg/mL, anti-6His + GxM-FITC (background 6)
[24] = target: human CD44 expressed on human cells (KG1a, SR91, HMEC, HUVEC, primary leukocytes) (human) (UniProt P16070); test: flow cytometry, KG1a-HA+ cells, Fab 20 µg/mL
[25] = target: human CD44 expressed on human cells (KG1a, SR91, HMEC, HUVEC, primary leukocytes) (human) (UniProt P16070); test: displacement of FL-HA, KG1a-HA- cells, Fab 500 µg/mL
[26] = target: human CD44 expressed on human cells (KG1a, SR91, HMEC, HUVEC, primary leukocytes) (human) (UniProt P16070); test: flow cytometry, CD44+ cells, Fab 50 µg/mL, 9E10 + GxM FITC detection (background 29)
[27] = target: human CD44 expressed on human cells (KG1a, SR91, HMEC, HUVEC, primary leukocytes) (human) (UniProt P16070); test: FL-HA binding to cells in presence of Fab 50 µg/mL, flow cytometry; HA alone 161
[28] = target: human CD44 expressed on human cells (KG1a, SR91, HMEC, HUVEC, primary leukocytes) (human) (UniProt P16070); test: flow cytometry, SR91 cells, Fab 10 µg/mL
[29] = target: human CD44 expressed on human cells (KG1a, SR91, HMEC, HUVEC, primary leukocytes) (human) (UniProt P16070); test: displacement of FL-HA, KG1a-HA- cells, Fab […]
[30] = target: human CD44 expressed on human cells (KG1a, SR91, HMEC, HUVEC, primary leukocytes) (human) (UniProt P16070); test: displacement of FL-HA, KG1a-HA+ cells, Fab […]
[31] = target: human CD44 expressed on human cells (KG1a, SR91, HMEC, HUVEC, primary leukocytes) (human) (UniProt P16070); test: displacement of FL-HA, KG1a-HA- cells, Fab 250 µg/mL
[32] = target: human CD44 expressed on human cells (KG1a, SR91, HMEC, HUVEC, primary leukocytes) (human) (UniProt P16070); test: flow cytometry, KG1a-HA+ cells, Fab 10 µg/mL
[33] = target: human CD44 expressed on human cells (KG1a, SR91, HMEC, HUVEC, primary leukocytes) (human) (UniProt P16070); test: FL-HA binding to cells in presence of Fab 25 µg/mL, flow cytometry; HA alone 161
[34] = target: human CD44 expressed on human cells (KG1a, SR91, HMEC, HUVEC, primary leukocytes) (human) (UniProt P16070); test: displacement of FL-HA, KG1a-HA- cells, Fab 1 mg/mL
[35] = target: human CD44 expressed on human cells (KG1a, SR91, HMEC, HUVEC, primary leukocytes) (human) (UniProt P16070); test: FL-HA binding to cells in presence of Fab 100 µg/mL, flow cytometry; HA alone 161
[36] = target: human CD44 expressed on human cells (KG1a, SR91, HMEC, HUVEC, primary leukocytes) (human) (UniProt P16070); test: flow cytometry, KG1a-HA- cells, Fab 500 µg/mL
[37] = target: neuraminidase-treated (activated) human CD44-Fc (human) (UniProt P16070); test: BIACORE (SPR)
human CD44-Fc (human) = human CD44-Fc (human) (UniProt P16070); test: BIACORE (SPR)
[38] = target: human CD44 expressed on human cells (KG1a, SR91, HMEC, HUVEC, primary leukocytes) (human) (UniProt P16070); test: flow cytometry, KG1a-HA- cells, Fab 50 µg/mL, anti-6His + GxM-FITC (background 6)
[39] = target: human CD44 expressed on human cells (KG1a, SR91, HMEC, HUVEC, primary leukocytes) (human) (UniProt P16070); test: flow cytometry titration, binding to CD44 on KG1a cells
[40] = target: human CD44 expressed on human cells (KG1a, SR91, HMEC, HUVEC, primary leukocytes) (human) (UniProt P16070); test: 50% HA blocking conc., HA-FITC on KG1a cells, flow cytometry
[41] = target: human CD44 expressed on human cells (KG1a, SR91, HMEC, HUVEC, primary leukocytes) (human) (UniProt P16070); test: estimated from the 50% binding concentration on KG1a cells, flow cytometry
[42] = target: human CD44 expressed on human cells (KG1a, SR91, HMEC, HUVEC, primary leukocytes) (human) (UniProt P16070); test: 50% CD44 binding conc., flow cytometry titration on KG1a cells
[43] = target: human CD44 expressed on human cells (KG1a, SR91, HMEC, HUVEC, primary leukocytes) (human) (UniProt P16070); test: blocking of HA-FITC binding to CD44 on KG1a cells, flow cytometry
[44] = target: biotinylated CD44Fc (human) (UniProt P16070); test: competition phage ELISA on b-CD44Fc, competitor S5 (450 ng) pre-incubated
[45] = target: biotinylated CD44Fc (human) (UniProt P16070); test: phage ELISA on b-CD44Fc, no competitor

B1: HAE-H10 Fab (Fab, V domains shown)
VH: EVQLLESGGGLVQPGGSLRLSCAASGFTFSPYLMSWVRQAPGKGLEWVSSIYSSGGLTDYADSVKGRFTISRDNSKNTLYLQMNSLRAEDTAVHYCARDGYYDSSGYEGFDYWGQGTLVTVSS
VL: [about 100 residues left out here]FGQGTKLEIK
FL counts (arbitrary units) [1]: 32
% inhibition of HA binding [2]: 57%
fluorescence (Fab Binding) [3]: 34
FL counts (arbitrary units) [4]: 9
fluorescence (Binding Titration) (arbitrary fluorescence units) [5]: 65
% inhibition of HA binding [6]: 65.4%
FL counts (arbitrary units) [7]: 34
fluorescence (Fab Binding) [8]: 132
% inhibition of HA binding [9]: 60%
fluorescence (Fab Binding) [10]: 39
% inhibition of HA binding [11]: 16%
fluorescence (Binding Titration) (arbitrary fluorescence units) [12]: 117
fluorescence (Binding Titration) (arbitrary fluorescence units) [13]: 176
FL counts (arbitrary units) [14]: 2.42
fluorescence (Fab Binding) [15]: 108
fluorescence (Binding Titration) (arbitrary fluorescence units) [16]: 92
% inhibition of HA binding [17]: 48.6%
fluorescence (Binding Titration) (arbitrary fluorescence units) [18]: 46
fluorescence (Fab Binding) [19]: 7
fluorescence (Fab Binding) [20]: 12
fluorescence (Binding Titration) (arbitrary fluorescence units) [21]: 74
fluorescence (Binding Titration) (arbitrary fluorescence units) [22]: 106
fluorescence (Fab Binding) [23]: 9
FL counts (arbitrary units) [24]: 3.46
% inhibition of HA binding [25]: 54.4%
FL counts (arbitrary units) [26]: 30
FL-HA signal remaining with antibody (HA Blocking) [27]: 185
FL counts (arbitrary units) [28]: 2.2
% inhibition of HA binding [29]: 91%
% inhibition of HA binding [30]: 11.2%
% inhibition of HA binding [31]: 61.1%
FL counts (arbitrary units) [32]: 2.88
FL-HA signal remaining with antibody (HA Blocking) [33]: 198
% inhibition of HA binding [34]: 47.7%
FL-HA signal remaining with antibody (HA Blocking) [35]: 145
fluorescence (Binding Titration) (arbitrary fluorescence units) [36]: 108
Kd [37]: 388 nM
Kd (human CD44-Fc (human)): 487 nM
fluorescence (Fab Binding) [38]: 12

B2: HAE-H10 IgG4 (antibody, V domains shown)
VH: B1 VH with H94Y, Y95H
VL: [about 100 residues left out here]FGQGTKLEIKR
Initial Saturation Conc. [39]: 100 µg/mL
IC50 [40]: 6.2 µg/mL
IC50 [41]: 69 nM
EC50 [42]: 12.5 µg/mL
Initial Saturation Conc. [43]: 50 µg/mL
Kd [37]: 3450 nM
Kd (human CD44-Fc (human)): 2350 nM

B3: BE-B12 (Fab displayed on phage) (Fab, V domains shown)
VH: EVQLLESGGGLVQPGGSLRLSCAASGFTFSKYTMWWVRQAPGKGLEWVSSIWSSGGFTRYADSVKGRFTISRDNSKNTLYLQMNSLRAEDTAVYYCAGRSGSYPADIWGQGTMVTVSS
VL: [about 100 residues left out here]QTGYTFGQGTKLEIK
phage ELISA signal (column CD44 + S5) [44]: 0.303
phage ELISA signal (column CD44) [45]: 0.785
